PMC4336329 (PLoS ONE, 2015)
Among all 310,000 compounds or so, about 14,000 (4.5%) showed an effect of 50% or more. Effects have a minus sign here. Some of the results follow.

Target: human ether-à-go-go-related gene (hERG) potassium channel (human, UniProt Q12809)
Assay: primary screen, population patch clamp on CHO cells stably expressing hERG
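Note: peak tail current of the secondary pulse compared with the same well before compound.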

Chain of human ether-à-go-go-related gene (hERG) potassium channel (Q12809 whole entry, looked up): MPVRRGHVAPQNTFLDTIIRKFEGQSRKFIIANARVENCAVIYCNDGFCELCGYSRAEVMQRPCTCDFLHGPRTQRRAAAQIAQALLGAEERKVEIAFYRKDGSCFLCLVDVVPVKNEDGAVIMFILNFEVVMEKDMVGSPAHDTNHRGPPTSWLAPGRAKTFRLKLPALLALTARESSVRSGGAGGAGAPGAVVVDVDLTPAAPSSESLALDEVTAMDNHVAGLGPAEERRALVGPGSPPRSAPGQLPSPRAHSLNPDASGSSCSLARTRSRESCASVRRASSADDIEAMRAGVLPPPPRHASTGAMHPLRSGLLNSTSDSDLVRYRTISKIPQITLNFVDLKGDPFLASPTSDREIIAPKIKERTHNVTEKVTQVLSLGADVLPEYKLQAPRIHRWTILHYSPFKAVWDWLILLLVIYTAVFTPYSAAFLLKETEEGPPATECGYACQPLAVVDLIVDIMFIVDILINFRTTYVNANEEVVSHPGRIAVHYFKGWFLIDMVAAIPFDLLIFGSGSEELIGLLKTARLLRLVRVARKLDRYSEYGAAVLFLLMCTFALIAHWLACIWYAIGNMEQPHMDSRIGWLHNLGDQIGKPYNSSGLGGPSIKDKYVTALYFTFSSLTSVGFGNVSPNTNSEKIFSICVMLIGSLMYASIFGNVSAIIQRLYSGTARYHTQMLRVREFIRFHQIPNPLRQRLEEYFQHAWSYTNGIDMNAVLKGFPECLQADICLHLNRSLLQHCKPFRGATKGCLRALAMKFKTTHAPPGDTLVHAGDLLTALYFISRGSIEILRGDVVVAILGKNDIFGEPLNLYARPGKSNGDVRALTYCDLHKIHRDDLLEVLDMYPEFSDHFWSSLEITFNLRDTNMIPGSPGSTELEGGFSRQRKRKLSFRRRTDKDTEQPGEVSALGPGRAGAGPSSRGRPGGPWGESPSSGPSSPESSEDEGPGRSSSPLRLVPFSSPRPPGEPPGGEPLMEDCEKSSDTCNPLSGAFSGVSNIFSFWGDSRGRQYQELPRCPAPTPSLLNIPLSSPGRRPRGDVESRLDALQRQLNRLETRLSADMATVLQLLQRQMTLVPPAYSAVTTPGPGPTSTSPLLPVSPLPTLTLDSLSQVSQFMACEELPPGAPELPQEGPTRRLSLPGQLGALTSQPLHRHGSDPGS

Compound | hERG current change (%, negative = inhibition) at 10uM [%]
O=S(=O)(c1cccc2nsnc12)N1CCCCC1 | -4.94
CCCNC(=O)C(Cc1ccccc1)NC(=O)Cc1ccccc1 (stereo not drawn) | 10
O=C1C=C(c2cc(F)ccc2F)C[C@@H](c2ccc(Cl)cc2)C1 | 12.2
Cc1ccc2cc(CCNS(=O)(=O)c3ccc(Br)cc3)c(=O)[nH]c2c1C | -9.41
Cc1ccc(Cn2ncc3c(N4CCN(Cc5ccc(Cl)cc5)CC4)ncnc32)cc1 | -5.3
CCOC(=O)N1CCN(c2ncnc3c2oc2nc(C(C)C)c4c(c23)CCC4)CC1 | -7.31
CC(C)Cc1cc(C(=O)N2CCCC(CCC(=O)N(C)CCc3ccccn3)C2)no1 (stereo not drawn) | -5.77
O=C(O)CCN1C(=O)c2ccc(Oc3ccc([N+](=O)[O-])cc3)cc2C1=O | 4.85
O=C(O)C1CCC(=O)N1C(=O)OCc1ccccc1 (stereo not drawn) | 17.4
Cc1cccc(NC(=O)CN(c2ccc(F)cc2)S(C)(=O)=O)c1 | 13.2
CCN(CC(=O)Nc1cc(C)on1)CC(=O)Nc1ccccc1C(F)(F)F | 13.7
O=C(CN1C(=O)CSc2ccc(S(=O)(=O)N3CCOCC3)cc21)NCCCN1CCc2ccccc2C1 | -66.3
O=C(Cc1ccc(-c2ccccc2)cc1)NC1CCCC1 | 23.3
CCN(c1ccc(NC(=O)COC(=O)/C=C/c2cccs2)cc1)C(C)C | 11.7
CC(C)c1nc2oc3c(NCC4CCCO4)ncnc3c2c2c1CCC2 (stereo not drawn) | -27.4
CSc1ccc(CN2CCC(CO)(CCOc3ccccc3)CC2)cc1 | -78.4
O=C(NC1C/C(=N/O)c2cc3c(cc21)OCO3)C(F)(F)F (stereo not drawn) | 21.5
O=C1CCCC2=C1C(c1ccc(O)c(Br)c1)C1=C(CCCC1=O)N2c1ccccc1 | -33
COc1ccccc1CC(=O)Nc1ccc(S(=O)(=O)N(C)C2CCN(C)CC2)cc1 | -6.79
COc1ccc(N2CCN(C(=O)CN(c3cccc(Br)c3)S(C)(=O)=O)CC2)cc1 | -18.7
O=C(CNC(=O)Cc1ccccc1)NCC(=O)N1CCN(C(c2ccccc2)c2ccccc2)CC1 | 13.1
Cc1ccc(-c2nnc(N3CCCCCC3)c3ccccc23)cc1 | 1

Compound | hERG current change (%, negative = inhibition) at 10uM [%]
Cc1ccc(OCc2nc(C#N)c(NCc3ccco3)o2)cc1 | -24.4
COc1ccc(/C=C/C(=O)NCCCn2ccnc2)cc1 | -30.9
O=C(NC1CCCCCCC1)C1CCN(c2nc3ccccc3o2)CC1 | -17.1
Cl.Nc1nc(-c2ccc3c(c2)OCCO3)cs1 | 19.4
Cc1ccc(S(=O)(=O)N/N=C\c2cn(-c3ccccc3)nc2-c2ccccc2)cc1 | 4.8
O=C(COC(=O)CSc1ccc(F)cc1)NCC1CCCCC1 | 6
COC(=O)c1ccc(NC(=O)CN(c2ccc(C)cc2)S(=O)(=O)c2c(C)n[nH]c2C)cc1 | 8.69
COc1ccc(N(CC(=O)N2CCN(c3cc(C)ccc3C)CC2)S(=O)(=O)c2c(C)noc2C)cc1 | 15.9
Br.CCOc1ccc2c(c1)nc(SCC(=O)c1ccc(Br)s1)n2C | 19.6
CCCN(C(=O)c1ccc(N(C)S(=O)(=O)c2ccc(C)cc2)cc1)C1CCS(=O)(=O)C1 (stereo not drawn) | -20.8
CCOc1ccccc1CNC(=O)CNC(=O)c1cccs1 | 6.43
CCN1C(=O)C(CC(=O)NCc2ccc(Cl)cc2)N(CC)C1=O (stereo not drawn) | -3.61
Cc1ccc(-n2nnnc2SCC(=O)c2ccc3c(c2)NC(=O)CO3)c(C)c1 | 8.2
CCOc1ccc(C2NC(=O)c3ccccc3O2)cc1 (stereo not drawn) | 5.34
CCOC(=O)c1ccc([N+](=O)[O-])c(CS(=O)(=O)c2ccc(Cl)cc2)c1 | -37.9
Cc1csc(NC(=O)CSCC(=O)Nc2ccccc2)n1 | 4.57
Nc1nc2nonc2nc1N1CCCCC1 | -0.289
Cc1cccc(NC(=O)c2cccc(Cn3cc(Br)c([N+](=O)[O-])n3)c2)c1C | 13.7
COc1ccc(OCc2cc(C(=O)NC(C)c3csc(C)n3)no2)c(Cl)c1 (stereo not drawn) | 9.12
CN1C(C(=O)Nc2ccccn2)=C(O)c2sc(Cl)cc2S1(=O)=O | 7.69
CN1CCc2c(sc(/N=C/c3c[nH]c4ccccc34)c2C(N)=O)C1 | 11.2
COc1ccc(S(=O)(=O)N2CCN(Cc3cc(OC)c(OC)cc3OC)CC2)cc1.O=C(O)C(=O)O | -11.5

Compound | hERG current change (%, negative = inhibition) at 10uM [%]
O=C(NC1CCCCC1)c1cc([N+](=O)[O-])ccc1N1CCCCC1 | -17
CC(OC(=O)c1ccc2ncsc2c1)C(=O)NC1CCCCC1C (stereo not drawn) | 3.22
Cc1nc(SCC(=O)NCc2ccccc2)c2c(=O)n(C)c(=O)n(C)c2n1 | -14
COc1ccc(-c2noc(-c3ccc4c(c3)OCO4)n2)cc1 | -3.35
CCCOc1ccc(C(=O)c2ccccc2C(=O)OC2CCOC2=O)cc1OCCC (stereo not drawn) | -20.9
O=C(N/N=C/c1ccccc1OC(=O)c1ccc2c(c1)OCO2)c1ccccc1 | 8.48
Cc1ccc(CNC(=O)c2ccc(N3CCC4(CC3)CC(c3ccccc3)=NO4)c(NC(=O)c3ccc(Cl)c([N+](=O)[O-])c3)c2)cc1 | 0.207
COc1ccccc1C(=O)NNC(=S)NC(=O)c1sc2ccccc2c1Cl | 6.92
Cc1cc2c(cc1C)CSC(c1ccccc1OC(=O)C(C)(C)C)SC2 | -9.71
O=C1c2cccc3cccc(c23)C(=O)N1CCc1ccccc1 | 14.2
Cc1cc(C)n2nc(SCc3ncc(-c4ccccc4)o3)nc2n1 | -32.8
CCNc1nc(NC(C)C)nc(NC(C)(C)C)n1 | 6.04
Brc1ccc(Oc2nsnc2N2CCOCC2)cc1 | -46.4
COc1ccc(C2C(C(=O)NCc3ccccc3)=C(C)Nc3ncnn32)cc1OC (stereo not drawn) | 8.75
C/C(=C/c1ccccc1)C(=O)N1CC(C)OC(C)C1 (stereo not drawn) | 11.7
N#CC1=C(N)Oc2c(oc(CO)cc2=O)C1c1cccs1 (stereo not drawn) | 18.2
C=C1CCC[C@]2(C)C[C@H]3OC(=O)C(CNC(C)CCCC(C)C)[C@H]3CC12 (stereo partly drawn) | -10.5
C=CCOc1ccc(CNn2cn[nH]c2=S)cc1OC | 5.81
Cc1ccc(NC(=O)COCC(=O)Nc2ccc(F)cc2)cc1 | 1.03
O=C(Nc1c[nH]c(=O)[nH]c1=O)c1ccccc1Br | 16.4
CC(=O)Nc1ccc(N=NC2C(=O)N(C(N)=S)N=C2C)cc1 (stereo not drawn) | 14.9
O=C(c1ccccc1NS(=O)(=O)c1cccc([N+](=O)[O-])c1)N1CCCC1 | 5.18

Compound | hERG current change (%, negative = inhibition) at 10uM [%]
COc1ccccc1CNS(=O)(=O)c1cc2c3c(c1)CCN3C(=O)CC2 | -4.02
O=C1CCCN1Cc1ccccc1 | 8.14
Nc1nonc1-n1nnc(C(=O)N/N=C/c2ccc(O)cc2)c1CN1CCCCCC1 | 11.5
CC(C)(C)Nc1nc(NN)nc(NC(C)(C)C)n1 | 11.8
Cc1cc(C(=O)Nn2c(C)nc3ccccc3c2=O)ccc1[N+](=O)[O-] | 3.82
COc1cc(C(=O)NCC(c2ccco2)N2CCCC2)ccc1OCc1c(C)noc1C (stereo not drawn) | -21.1
Cc1ccc(CN(C(=O)c2ccc(Cl)c([N+](=O)[O-])c2)C2CCS(=O)(=O)C2)o1 (stereo not drawn) | -22
COC(=O)/C(=C1/Oc2cc(C)oc(=O)c2S1)C(F)(F)F | 13.4
CCN(CC)c1ccc(CNC(=O)C/C(C)=N/NC(=O)COc2ccc(C)cc2Br)cc1 | -23.6
Cc1cc(C(=O)COC(=O)c2ccc3c(c2)NC(=O)CS3)c(C)n1CCc1ccc(Cl)cc1 | 25.7
COc1ccc(-c2csc(NC(=O)c3ccccc3OC)c2C(=O)O)cc1OC | 20.6
CCOC(=O)c1c(S(=O)(=O)NCC(=O)Nc2ccc(OC)cc2)c(C)n(C)c1C | 10.9
CN(C)c1ccc(NC(=O)CC(NCc2ccccn2)C(=O)O)cc1 (stereo not drawn) | 15.7
CNC(=S)Nc1cccc(C(C)=O)c1 | 10.5
CC(C)N(c1ccccc1)c1ccc(NC(=O)CCl)cc1 | -1.05
COc1cccc(CN2CCN(CCCc3ccccc3)C(CCO)C2)c1OC (stereo not drawn) | -48.6
CSc1ccc(CN2CCCCCC2)cc1 | -35
CCOc1cccc(C(=O)Nc2cccc(-c3nnc(-c4ccccc4)o3)c2)c1 | -16.4
COc1ccc(OCC(=O)NC(=O)c2ccccc2OC)c([N+](=O)[O-])c1 | -14.1
CC(C)(C)Cc1nnc(NC(=O)CN2C(=O)c3ccccc3C2=O)s1 | 14.8
Cc1sc2nc(CSc3ncn[nH]3)[nH]c(=O)c2c1C | 33.7
